According to patent EP4711384A1 (WIO Bioscience Co., Ltd., dated 2026):

T1: human IL-18RAP ECD-His (human, UniProt O95256 20-356)
T1 sequence: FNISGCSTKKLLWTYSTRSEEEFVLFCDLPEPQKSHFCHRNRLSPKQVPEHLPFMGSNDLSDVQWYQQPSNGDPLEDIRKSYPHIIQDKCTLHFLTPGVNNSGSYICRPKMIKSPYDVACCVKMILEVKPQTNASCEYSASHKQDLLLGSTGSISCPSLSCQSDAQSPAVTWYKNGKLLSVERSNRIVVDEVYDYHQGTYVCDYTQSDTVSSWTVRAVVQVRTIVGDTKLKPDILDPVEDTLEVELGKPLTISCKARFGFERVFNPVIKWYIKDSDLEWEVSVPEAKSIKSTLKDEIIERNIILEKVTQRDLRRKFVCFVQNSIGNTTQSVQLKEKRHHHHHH

T2: human IL-18R1 ECD-His (human, UniProt Q13478 22-329)
T2 sequence: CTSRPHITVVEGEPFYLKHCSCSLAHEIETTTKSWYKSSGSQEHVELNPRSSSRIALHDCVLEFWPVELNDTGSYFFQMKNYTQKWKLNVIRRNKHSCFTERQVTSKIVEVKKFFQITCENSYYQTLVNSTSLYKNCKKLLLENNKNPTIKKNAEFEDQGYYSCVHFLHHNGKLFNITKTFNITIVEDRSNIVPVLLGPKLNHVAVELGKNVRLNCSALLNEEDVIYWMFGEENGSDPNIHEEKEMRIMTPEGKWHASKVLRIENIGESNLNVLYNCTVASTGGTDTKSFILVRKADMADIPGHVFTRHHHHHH

T3: human IL-18R1 and IL-18RAP on IL-18 Reporter HEK 293 Cells (human, UniProt Q13478 19-541; O95256 20-599)
T3 sequence (looked up) 1: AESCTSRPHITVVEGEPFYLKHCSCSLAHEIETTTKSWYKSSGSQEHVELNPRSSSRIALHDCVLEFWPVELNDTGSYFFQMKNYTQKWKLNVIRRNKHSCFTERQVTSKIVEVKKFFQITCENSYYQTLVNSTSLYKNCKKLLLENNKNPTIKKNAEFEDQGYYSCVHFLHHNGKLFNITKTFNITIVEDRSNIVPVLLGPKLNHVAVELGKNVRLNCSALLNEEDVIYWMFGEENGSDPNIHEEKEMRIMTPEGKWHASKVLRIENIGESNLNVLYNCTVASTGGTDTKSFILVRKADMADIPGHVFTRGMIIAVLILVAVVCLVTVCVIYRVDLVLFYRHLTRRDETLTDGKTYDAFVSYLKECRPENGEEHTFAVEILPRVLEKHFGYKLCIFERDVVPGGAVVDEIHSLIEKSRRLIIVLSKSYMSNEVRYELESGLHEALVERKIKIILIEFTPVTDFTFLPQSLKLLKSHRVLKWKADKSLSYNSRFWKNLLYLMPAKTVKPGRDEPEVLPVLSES
T3 sequence (looked up) 2: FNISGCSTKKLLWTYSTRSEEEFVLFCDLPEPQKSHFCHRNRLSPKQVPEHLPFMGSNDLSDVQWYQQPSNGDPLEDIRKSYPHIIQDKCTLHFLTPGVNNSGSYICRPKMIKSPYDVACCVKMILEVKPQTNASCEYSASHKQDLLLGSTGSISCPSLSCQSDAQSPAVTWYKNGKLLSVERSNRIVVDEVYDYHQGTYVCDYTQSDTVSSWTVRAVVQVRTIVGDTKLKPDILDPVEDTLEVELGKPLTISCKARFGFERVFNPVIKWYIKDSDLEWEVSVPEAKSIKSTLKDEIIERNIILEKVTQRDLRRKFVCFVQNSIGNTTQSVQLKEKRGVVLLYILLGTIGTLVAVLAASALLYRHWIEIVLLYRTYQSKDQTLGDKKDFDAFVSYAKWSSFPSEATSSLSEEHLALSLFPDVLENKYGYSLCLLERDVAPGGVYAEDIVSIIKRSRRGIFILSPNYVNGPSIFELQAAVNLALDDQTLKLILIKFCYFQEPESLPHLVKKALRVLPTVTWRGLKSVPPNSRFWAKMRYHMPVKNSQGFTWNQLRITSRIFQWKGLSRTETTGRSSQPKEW

B1: hzRap-A10 single-domain antibody fused with human Fc at the C-terminus (Fc fusion)
chain: EVQLLESGGGLVQPGGSLRLSCAASGYTYGPYCMGWFRQAPGKEREGVAAVGGDARTWYGNSVKGRFTISRDNSKNTLYLQMNSLRAEDTAVYYCAADFDRTVCSDDIYDYTYRGQGTLVTVSS[human IgG1 Fc with changes not shown]
B2: Rap-C10 single-domain antibody fused with human Fc at the C-terminus (Fc fusion)
chain: QVQLQESGGGSVQPGGSLRLSCAASGFTYIPAYMGWFRQAPGKERERVASISSTDGSTTYADSVKGRFTVSQDTAKNTLYLQMNSLKPEDTAMYYCAAYQFGAFRVWGQGTQVTVSS[human IgG1 Fc with changes not shown]
B3: hzRap-C10 single-domain antibody fused with human Fc at the C-terminus (Fc fusion)
chain: EVQLVESGGGLVQPGGSLRLSCAASGFTYIPAYMGWFRQAPGKERERVASISSTEGSTTYADSVKGRFTISQDNSKNTLYLQMNSLRPEDTAVYYCAAYQFGAFRVWGQGTLVTVSS[human IgG1 Fc with changes not shown]
B4: Rap-A10 single-domain antibody fused with human Fc at the C-terminus (Fc fusion)
chain: QVQLQESGGGLVQAGGSLKLSCAASGYTYGPYCMGWFRQFPGKEREGVAAVGGDGRTWYGNSVKGRFTISQDNAKKTLYLQINALKPEDTAMYYCAADFDRTVCSDDIYDYTYRGQGTQVTVSS[human IgG1 Fc with changes not shown]
B5: Rap-F11 single-domain antibody fused with human Fc at the C-terminus (Fc fusion)
chain: QVQLQESGGGSVQPGGSLRLSCAASGFTYIPAYMGWFRQAPGKERERVASIKTDGSTTYADSVNGRFTIAQDTAKNTLYLQMDSLKPEDTAMYYCAAYQFGAFRVWGQGTQVTVSS[human IgG1 Fc with changes not shown]
B6: hzR1-F9 single-domain antibody-hFc fusion protein (Fc fusion)
chain: EVQLVESGGGLVQPGGSLRLSCAASGFTVHDMGWYRQAPGKECELVSTISSDASTYYADSVKGRFTISRDNAKNTLYLQMNSLRAEDTAVYYCAADSFTGLQLAECKADFGYWGQGTLVTVSSGS[human IgG1 Fc with changes not shown]
B7: R1-F9 single-domain antibody-hFc fusion protein (Fc fusion)
chain: QVQLQESGGGSVQAGETLRLSCTASGFTVHDMGWYRQAPGNECELVSTISSDGSTYYADSVKGRFTISQDNAKNTVYLQMNSLKPEDTAVYYCAADHFTGLQLAECKADFGYWGQGTQVTVSSGS[human IgG1 Fc with changes not shown]
B8: hzR1-C10 single-domain antibody-hFc fusion protein (Fc fusion)
chain: EVQLVESGGGLVQPGGSLRLSCAASGSTFDEYDMGWYRQAPGGKCELVSTISTIDASTYYADSVKGRFTISRDNSKNTLYLQMNSLRAEDTAVYYCEADDRGTWDRGGCWGQGTLVTVSSGS[human IgG1 Fc with changes not shown]
B9: R1-A12 single-domain antibody-hFc fusion protein (Fc fusion)
chain: QVQLQESGGGPVQAGGSLRLSCSASTTAYDNACMGWFRQAPGKEREGVASIHLRDRTYYADSVKGRFTLSRDGASKTLYLQMNSLKPEDSGTYYCASSNICNGLNLQGNTYWGQGTQVTVSSGS[human IgG1 Fc with changes not shown]
B10: hzR1-C7 single-domain antibody-hFc fusion protein (Fc fusion)
chain: EVQLVESGGGLVQPGGSLRLSCAASGNLYRDPCMGWFRQAPGKDREGVAAMNTGADSTFYARSVKGRFTISRDNAKNTLYLQMNSLRAEDTAVYYCAASRYCTERTYTWRYDYDYWGQGTLVTVSSGS[human IgG1 Fc with changes not shown]
B11: hzR1-A12 single-domain antibody-hFc fusion protein (Fc fusion)
chain: EVQLVESGGGLVQPGGSLRLSCAASGTAYDNACMGWFRQAPGKEREGVASIHLRDRTYYADSVKGRFTISRDNSKNTLYLQMNSLRAEDTAVYYCASSNICNALNLQGNTYWGQGTLVTVSSGS[human IgG1 Fc with changes not shown]
B12: R1-C10 single-domain antibody-hFc fusion protein (Fc fusion)
chain: QVQLQESGGGSVQAGETLRLSCTASGSTFDEYDMGWYRQAPGNKCELVSTISTIDGSTYYADSVKGRFTISQDNTKNTVYLQMNSLKPEDTGVYYCEADDRGTWDRGGCWGQGTQVTVSSGS[human IgG1 Fc with changes not shown]
B13: R1-C7 single-domain antibody-hFc fusion protein (Fc fusion)
chain: QVQLQESGGGPVQAEGSLRLSCTASGNLYRDPCMGWFRQAPGKDREGVAAMNTGADSTFYARSVKGRFTISHDNAKNTLYLQMNSVKPEDTAMYYCAASRYCTERTWTWRYDYDYWGQGTQVTVSSGS[human IgG1 Fc with changes not shown]
B14: hzWio-02-31-hFc (bispecific antibody)
chain: EVQLVESGGGLVQPGGSLRLSCAASGFTYIPAYMGWFRQAPGKERERVASISSTEGSTTYADSVKGRFTISQDNSKNTLYLQMNSLRPEDTAVYYCAAYQFGAFRVWGQGTLVTVSSGGGGSEVQLVESGGGLVQPGGSLRLSCAASGFTVHDMGWYRQAPGKECELVSTISSDASTYYADSVKGRFTISRDNAKNTLYLQMNSLRAEDTAVYYCAADSFTGLQLAECKADFGYWGQGTLVTVSS[human IgG1 Fc with changes not shown]
B15: hzWio-02-30-hFc (bispecific antibody)
chain: EVQLVESGGGLVQPGGSLRLSCAASGFTYIPAYMGWFRQAPGKERERVASISSTEGSTTYADSVKGRFTISQDNSKNTLYLQMNSLRPEDTAVYYCAAYQFGAFRVWGQGTLVTVSSGGGGSEVQLVESGGGLVQPGGSLRLSCAASGSTFDEYDMGWYRQAPGGKCELVSTISTIDASTYYADSVKGRFTISRDNSKNTLYLQMNSLRAEDTAVYYCEADDRGTWDRGGCWGQGTLVTVSS[human IgG1 Fc with changes not shown]
B16: hzWio-02-29-hFc (bispecific antibody)
chain: EVQLLESGGGLVQPGGSLRLSCAASGYTYGPYCMGWFRQAPGKEREGVAAVGGDARTWYGNSVKGRFTISRDNSKNTLYLQMNSLRAEDTAVYYCAADFDRTVCSDDIYDYTYRGQGTLVTVSSGGGGSEVQLVESGGGLVQPGGSLRLSCAASGTAYDNACMGWFRQAPGKEREGVASIHLRDRTYYADSVKGRFTISRDNSKNTLYLQMNSLRAEDTAVYYCASSNICNALNLQGNTYWGQGTLVTVSS[human IgG1 Fc with changes not shown]
B17: hzWio-02-44-hFc (bispecific antibody)
chain: EVQLLESGGGLVQPGGSLRLSCAASGYTYGPYCMGWFRQAPGKEREGVAAVGGDARTWYGNSVKGRFTISRDNSKNTLYLQMNSLRAEDTAVYYCAADFDRTVCSDDIYDYTYRGQGTLVTVSSGGGGSQVQLQESGGGSVQAGGSLRLSCVASGTTMSMNYMAWFRQAPGKEREGVASIFRSTHYADSVKGRFTIAEDSAKNTVYLQMNSLKPEDTAVYYCAAGRTKPYLTPLAESQYNYWGQGIQVTVSS[human IgG1 Fc with changes not shown]

Each binder was assayed against T1, human IL-18RAP ECD-His (assay: BLI (Octet), AHC capture, antigen 100 nM).

| Kd [nM] | koff [s⁻¹] | kon [M⁻¹ s⁻¹] | Binder |
| --- | --- | --- | --- |
| 0.986 | 5.04e-05 | 51100 | B1 |
| 1.73 | 0.00105 | 606000 | B2 |
| 6.24 | 0.00116 | 185000 | B3 |
| 0.53 | 0.000687 | 1.3e+06 | B4 |
| 4.58 | 0.000705 | 154000 | B5 |

Each binder was assayed against T2, human IL-18R1 ECD-His (assay: BLI (Octet), AHC capture, antigen 100 nM).

| Kd [nM] | koff [s⁻¹] | kon [M⁻¹ s⁻¹] | Binder |
| --- | --- | --- | --- |
| 3.74 | 0.000213 | 56900 | B6 |
| 1.1 | 8.73e-05 | 79400 | B7 |
| 1.45 | 0.000206 | 142000 | B8 |
| 2.82 | 0.000474 | 168000 | B9 |
| 2.53 | 0.000515 | 204000 | B10 |
| 2 | 0.00018 | 90100 | B11 |
| 0.0281 | 0.000147 | 5.22e+06 | B12 |
| 2.56 | 0.000537 | 209000 | B13 |

These binders were tested against T3, human IL-18R1 and IL-18RAP on IL-18 … (assay: cell-based or functional assay).

| EC50 [ng/mL] | Top630nm | Binder |
| --- | --- | --- |
| 4.15 | 0.39 | B14 |
| 4.43 | 0.451 | B15 |
| 1.55 | 1.24 | B16 |
| 4.69 | 0.301 | B17 |
